Source: PubChem BioAssay AID624173 (National Center for Advancing Translational Sciences (NCATS), 2012)
Among all 410,000 compounds or so, about 490 (0.12%) were called active. This list was built around the results that the source calls inconclusive (neither active nor inactive); the mix of calls is not that of the screen. Calls come from the whole dose curve; as a rule, active = well fitted inhibition curve with a large enough effect; inconclusive = small, poorly fitted or top-dose-only effect; inactive = flat fitted curve, though single readings scatter. Potencies of inconclusive entries are doubtful fits and often do not repeat.

target: pyruvate kinase (Trypanosoma brucei) (UniProt Q57TT1); assay: qHTS of Trypanosoma Brucei Inhibitors; conditions: TbPYK enzyme, Kinase-Glo Plus ATP luminescence, 45 min; series mostly up to 76.8 µM; activity, negative = inhibition: at the top concentration; note: nearly all actives have a fitted effect of over 50% in size
In short: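 TbPYK + substrate in 50 mM TEA pH 7.2, 100 mM KCl, 10 mM MgCl2, 0.05% BSA, 0.01% Tween-20; cpd pinned; ADP 130 uM final; 45 min RT; Kinase-Glo Plus 10 min; luminescence endpoint.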
% is set by controls: 0 for no effect and ±100 for the full control effect; potency is the fitted concentration of half-maximal effect; tags give direction and shape of the fitted curve.

Structure (SMILES)	Potency	activity, negative = inhibition
Cc1ccn(Cc2n[nH]c(=S)n2Cc2ccccc2)n1	inconclusive: 8.91 µM [inhibitor, partial curve]	–
CCn1c(CN2CCN(c3cccc(C)c3C)CC2)n[nH]c1=S	inconclusive: 6.31 µM [inhibitor, full curve, poor fit]	–
CCOC(=O)c1sc2ccccc2c1S(=O)(=O)Nc1ccc(OC)c(Cl)c1	inconclusive: 35.5 µM [inhibitor, single point]	–
CNc1nc(-c2ccccc2)[n+](-c2ccc(C)cc2)s1	inconclusive: 2 µM [inhibitor, full curve, poor fit]	–
C=CCC1C(=O)NC(=S)NC1=O	inconclusive: 14.1 µM [inhibitor, partial curve]	–
Cc1ccccc1-c1n[nH]c(=S)o1	inconclusive: 44.7 µM [inhibitor, single point]	–
Cc1ccnc(SCCn2c(N3CCN(Cc4ccccc4)CC3)nc3c2c(=O)[nH]c(=O)n3C)n1	–	inactive: 4.59%
Cc1ccc(/C=N/n2c(COc3ccccc3)n[nH]c2=S)o1	inconclusive: 1 µM [inhibitor, full curve, poor fit]	–
O=C(O)c1ccccc1-c1ccc(C=C2C(=O)N(c3ccccc3)C(=S)N(c3ccccc3)C2=O)o1	inconclusive: 28.2 µM [inhibitor, partial curve, poor fit]	–
COc1ccc(-c2cn(Cc3ccc(C(N)=O)cc3)c(-c3ccncc3)n2)cc1	–	inactive: -9.15%
CCc1nc2ccc(C(=O)NCc3ccccc3C)cc2nc1CC	–	inactive: -11.3%
Cc1cccc(/C=N/n2c(COc3ccccc3)n[nH]c2=S)c1	inconclusive: 2.51 µM [inhibitor, full curve, poor fit]	–
COc1ccc(C(=O)N2c3nc(-c4ccco4)nn3C3(CCCCC3)[C@@H]3CCCC[C@@H]32)cc1OC	inconclusive: 50.1 µM [inhibitor, single point]	–
Cc1occc1-c1n[nH]c(=S)n1C	inconclusive: 31.6 µM [inhibitor, partial curve, poor fit]	–
CCCCCCn1c(=O)n2n(c1=O)C[C@]1(OC(=O)Nc3c(C)noc3C)CN(S(=O)(=O)c3ccc(C)cc3)C[C@]1(O)C2	–	inactive: 3.12%
COc1ccccc1NC(=S)N(CCc1nc2cc(C)c(C)cc2[nH]1)Cc1cccnc1	inconclusive: 7.94 µM [inhibitor, partial curve]	–
C/C(=N\Nc1ccc(S(N)(=O)=O)cc1[N+](=O)[O-])c1ccc2c(c1)OCO2	–	inactive: -4.56%
CCn1cc(-c2n[nH]c(=S)n2-c2ccc(C)cc2Br)c(=O)c2ccc(C)nc21	inconclusive: 14.1 µM [inhibitor, partial curve]	–
COc1cc(NC(=O)CN2C(=O)C(c3ccc(Cl)cc3)=NC23CCCCC3)cc(OC)c1	–	inactive: 5.23%
CCOC(=O)C1=C(C)N(c2ccc(C)cc2)C(=O)/C1=C\c1ccc(O)c(OC)c1	inconclusive: 35.5 µM [inhibitor, single point]	–
C[N+](C)(C)C/C=C1/COCO1	inconclusive: 31.6 µM [inhibitor, single point]	–
O=C(Nc1ccc(Br)cc1)N1CCCCCC1	–	inactive: 8.09%
COc1ccc(NC(=O)Cc2ccc(Cl)cc2Cl)cn1	–	inactive: 2.59%
S=c1[nH]ccn1-c1cccc(Cl)c1	inconclusive: 14.1 µM [inhibitor, partial curve]	–

Structure (SMILES)	Potency	activity, negative = inhibition
COc1cccc(C2CC(=O)N3CN(c4cccc(Cl)c4C)CSC3=C2C#N)c1OC (stereo not given)	inconclusive: 3.55 µM [inhibitor, full curve, poor fit]	–
CN(C)CCCn1c(=S)[nH]c2sc3c(c2c1=O)CCCC3	inconclusive: 25.1 µM [inhibitor, partial curve]	–
COc1ccccc1-n1c(CNC(=O)c2ccc(S(=O)(=O)N3CCCCC3)cc2)n[nH]c1=S	inconclusive: 15.8 µM [inhibitor, partial curve]	–
CC1=NNC(=O)C1Br (stereo not given)	inconclusive: 12.6 µM [inhibitor, partial curve, poor fit]	–
CC(=O)Oc1cc2c(s1)CCN(C(C(=O)C1CC1)c1ccccc1F)C2 (stereo not given)	inconclusive: 14.1 µM [inhibitor, partial curve]	–
CCOC(=O)N1CCc2c(sc(NCc3cc(OC)c(OC)cc3OC)c2C(=O)Nc2ccc(OCC)cc2)C1	inconclusive: 11.2 µM [inhibitor, partial curve]	–
C(=C\c1ccco1)/C1=NN(c2ccccc2)C(c2ccco2)C1 (stereo not given)	–	inactive: -10.9%
O=C(Nc1ccc(S(=O)(=O)N2CCCC2)cc1)c1ccc([N+](=O)[O-])o1	–	inactive: 0.321%
Cc1ccc(C)n1-c1nnc(N2CCCC(C(=O)NCc3cccc(Cl)c3)C2)s1 (stereo not given)	–	inactive: -5.23%
O=C1CSC(=S)N1N=Cc1c(O)ccc2ccccc12	inconclusive: 22.4 µM [inhibitor, partial curve]	–
C=CCN=C1NN=C(c2cc(C)n(CC=C)c2C)CS1	inconclusive: 25.1 µM [inhibitor, partial curve]	–
CCOc1cc(C(c2c(O)nc(SC)[nH]c2=O)c2c(O)nc(SC)[nH]c2=O)ccc1O	inconclusive: 31.6 µM [inhibitor, partial curve, poor fit]	–
CC(C1CC2CCC1C2)n1c(-c2ccco2)n[nH]c1=S (stereo not given)	inconclusive: 1.26 µM [inhibitor, full curve, poor fit]	–
COC(=O)c1sc(NC(=O)c2cc(-c3ccccc3)nc3ccccc23)c(C#N)c1C	inconclusive: 11.2 µM [inhibitor, partial curve, poor fit]	–
CC(=O)c1c(C)nc2cc(Cl)ccc2c1N	inconclusive: 4.47 µM [inhibitor, partial curve, poor fit]	–
Cc1nn(-c2ccccc2)c(C)c1/C=N/n1c(-c2ccccc2Br)n[nH]c1=S	inconclusive: 2.82 µM [inhibitor, full curve]	–
COc1cc(C(C[N+](=O)[O-])c2c(C)cc3ccccn23)ccc1O (stereo not given)	inconclusive: 7.94 µM [inhibitor, partial curve]	–
Cn1c(CCCOc2ccc(Cl)cc2Cl)n[nH]c1=S	inconclusive: 10 µM [inhibitor, partial curve]	–
O=C(/C=C/c1ccc2c(c1)OCO2)c1ccccn1	inconclusive: 31.6 µM [inhibitor, partial curve, poor fit]	–
CC[n+]1ccc2cc(OC)c(OC)cc2c1Cc1ccc(OC)c(OC)c1	inconclusive: 39.8 µM [inhibitor, single point]	–
CCOc1cccc2sc(NC(=O)CC)nc12	inconclusive: 50.1 µM [inhibitor, single point]	–
Cc1ccc(C2CC2c2n[nH]c(=S)n2-c2cccc(C)c2)cc1 (stereo not given)	inconclusive: 2.51 µM [inhibitor, full curve]	–
O=c1c2ccc(F)cc2sn1-c1ccccc1	active: 10 µM	–
Fc1cc(F)c(F)c(SCCc2ccncc2)c1F	inconclusive: 35.5 µM [inhibitor, partial curve]	–

Structure (SMILES)	Potency	activity, negative = inhibition
O=C(NCc1ccccn1)/C(=N/O)c1ccccc1	inconclusive: 50.1 µM [inhibitor, single point]	–
c1cc2c(cc1C1=NNC(=NC3CC3)SC1)OCCO2	inconclusive: 14.1 µM [inhibitor, partial curve, poor fit]	–
C/C(=N\NC(=O)Cc1cc(=O)[nH][nH]1)c1cccc([N+](=O)[O-])c1	–	inactive: -11.9%
O=C(Cn1ccc(NC(=O)OCc2ccccc2)nc1=O)NCc1ccccn1	–	inactive: -2.14%
Cc1cc(C)nc(SSc2nc(C)cc(C)n2)n1	inconclusive: 5.62 µM [inhibitor, full curve, poor fit]	–
CCn1cc(C(=O)OCC(=O)Nc2cccc(C(C)=O)c2)c(=O)c2ccc(C)nc21	–	inactive: -12.7%
CC(=O)Nc1ccc(N=Cc2c(O)n(Cc3ccco3)c(=O)[nH]c2=O)cc1	–	inactive: -5.24%
Nc1cc(S(=O)(=O)O)cc2ccc(S(=O)(=O)O)cc12	inconclusive: 22.4 µM [inhibitor, partial curve]	–
CCC(C)N1C(=O)/C(=C\c2cnc(N(C)C)nc2)C(=O)NC1=S (stereo not given)	inconclusive: 35.5 µM [inhibitor, single point]	–
Cc1cc(C)cc(C(=O)N[C@@H](C)C(=O)N2CCC3(CC2)NCCc2[nH]cnc23)c1	–	inactive: 0.259%
CC12Cc3cnoc3C=C1CCC1C2CCC2(C)C1CCC2(C)O (stereo not given)	–	inactive: -1.76%
O=C(CSc1ccc(-c2ccccn2)nn1)N1CCCC1	inconclusive: 44.7 µM [inhibitor, single point]	–
Cc1cccc(NC(=S)NNC(=O)c2sccc2C)c1	–	inactive: -12.7%
Cc1cc(C)cc(NC(=O)Cn2nnc(C(=O)NCc3ccc(F)cc3)c2N)c1	inconclusive: 35.5 µM [inhibitor, single point]	–
COc1ccc(C(=O)Nc2ccc(CN3CCOCC3)cc2)cc1Br	–	inactive: -3.39%
COc1ccc(/C=C(/NC(=O)c2cccs2)C(=O)N2CCOCC2)cc1OC	–	inactive: -2.88%
O=C(CN1CCCC1=O)NC1CCCc2c1cnn2-c1cc(F)cc(F)c1 (stereo not given)	–	inactive: 2.1%
CCOc1ccc(C(=O)Nc2ccc3[nH]ncc3c2)cc1	–	inactive: 8.05%
CN(C)S(=O)(=O)c1cccc(-c2nn(-c3ccccc3)cc2/C=C(/C#N)C(=O)NCc2ccco2)c1	inconclusive: 0.891 µM [inhibitor, full curve, poor fit]	–
N#C/C(=C\c1ccc(OCc2ccc(Br)cc2)cc1)C(=O)Nc1cccc(C(=O)O)c1	–	inactive: 1.02%
CC(C)(C)C(=O)OC/C(N)=N/OC(=O)c1ccc(Cl)c(Cl)c1	–	inactive: -0.537%
COC(=O)c1ccc2nc(-c3ccco3)c(Cc3cccc(Cl)c3)n2c1	inconclusive: 25.1 µM [inhibitor, single point]	–
